The other results are listed elsewhere or left out.
Test system: T1, C. trachomatis L2/434/Bu expressing GFP (CTL2-GFP)
T1 construct: L2/434/Bu GFP intracellular growth in HeLa cells
Design: species or system HeLa; C. trachomatis total inclusion area by high-content imaging, normalised to DMSO
Details: total inclusion area; 28.5 h, 10 µM; inhibitor
In short: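 Bulk GFP and resorufin signals were read first. Wells were then fixed, stained with Hoechst and imaged to detect GFP inclusions and host nuclei. MICs followed the previously described calculation.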

| Structure (SMILES) | % of control remaining |
| --- | --- |
| O=S(=O)(Nc1cnc2ccccc2c1)c1cccs1 [CBK043694] | 104.371 |
| CN(CC1(C)COC1)C(=O)c1ccc2c(c1)ncn2C1CC1 [CBK281718] | 101.559 |
| O=C(CSc1ccc2ccccc2n1)NNC(=O)c1cccc([N+](=O)[O-])c1 [CBK262506] | 95.8979 |
| CCOC(=O)C1(NC(=O)C2(Oc3cccnc3C)CCNCC2)CCC1 [CBK306688] | 94.7179 |
| N#Cc1ccc(Oc2cccc(C(F)(F)F)c2)c(F)c1 [CBK002801] | 95.5807 |
| O=C1CN(C(=O)NC2CCc3ccccc32)CCN1 (stereo not drawn) [CBK155878] | 99.1436 |
| Cc1nn(C)c(C)c1CCn1cncc1-c1ccc2c(c1)CC(C)N2C (stereo not drawn) [CBK281788] | 117.123 |
| c1ccc(-c2ccc(Nc3ccc4c(c3)OCCO4)nc2)cc1 [CBK037802] | 95.8685 |
| O=C(O)c1cccc(NC(=O)c2ccc3c(c2)C(=O)N(Cc2cccnc2)C3=O)c1 [CBK265523] | 100.776 |
| NC(=O)COc1ccccc1O [CBK261029] | 101.584 |
| Cc1ccc(NC(=O)N2CCC(C(=O)O)CC2)cc1 [CBK156077] | 98.9852 |
| COCCn1c(SC2CCN(C)C2=O)nc2ccccc21 (stereo not drawn) [CBK305131] | 53.9875 |
| Cc1nccn1CCC1CCN(C(=O)CC2CCCCO2)CC1 (stereo not drawn) [CBK281974] | 86.4891 |
| Cn1c(COc2ccccc2)nnc1SCC(=O)c1ccc(-c2ccccc2)cc1 [CBK267426] | 99.2786 |
| CCCn1cc(C(CC(=O)O)C(=O)O)c2ccccc21 (stereo not drawn) [CBK267345] | 111.963 |
| CC1(C(=O)O)NC(c2ccccc2O)C2C(=O)N(Cc3ccccc3)C(=O)C21 (stereo not drawn) [CBK218007] | 97.2238 |
| Oc1cc(Cl)c(-c2ccccc2)nn1 [CBK022028] | 75.5939 |
| c1ccc2sc(CCCCc3nc4ccccc4s3)nc2c1 [CBK261248] | 107.974 |
| Cn1ccnc1C(O)C1CCN(C(=O)NCCc2cccc(F)c2)CC1 (stereo not drawn) [CBK304657] | 52.5081 |
| O=C(c1ccccc1)N1C[C@@H]2CCCCN(Cc3cccnc3)[C@@H]2C1 [CBK285512] | 92.9805 |
| CN(C)CCN1CCN(c2ccc(-c3ccsc3)cn2)CC1 [CBK036915] | 109.765 |
| CN(C)c1cccc(-c2cncc(Nc3cccc(C(F)(F)F)c3)n2)c1 [CBK065786] | 119.739 |
| CCn1cc(NC(=O)NC2CCN(c3ncccc3C#N)CC2)c(C)n1 [CBK307213] | 50.1218 |
| O=C(c1n[nH]c2c1CCCC2)N1CC(=O)N(CCc2ccccc2)C(=O)C1 [CBK288110] | 134.712 |
| Cc1noc(C)c1NC(=O)N(Cc1ccc(-c2ccccc2)cc1)CC1CCNCC1 [CBK056721] | 93.521 |
| CCCn1ccnc1-c1cn(CCc2cc(O)nc(C)n2)nn1 [CBK306675] | 56.9356 |
| O=C(c1ccco1)N1CCN(C(=S)Nc2ccc(S(=O)(=O)Nc3ncccn3)cc2)CC1 [CBK267096] | 62.8953 |
